Results from article PMC2823744.
Results are given in words; binding and its absence hold for the method and conditions named. For part of these data: In cells and extracts the contact can be indirect. Some entries that bind do so weakly or less than the wild type. Where a sequence is shown, tags or fusion partners need not be part of it. Blank lines part the entries; values can stand above or below the binder they belong to.

The chains behind the UniProt entries cited, without tags or fusion partners. Where a name states a change or a piece, a line headed by the entry shows the natural chain unless it says otherwise. A line that says so, or that is headed by a name, gives the form on record, which may keep a tag or linker. Residues count along the entry.
GAL4 DNA binding domain fused to the intracellular domain of LRP1 (pBIND-LRP1) (Q07954, residues 4445-4544): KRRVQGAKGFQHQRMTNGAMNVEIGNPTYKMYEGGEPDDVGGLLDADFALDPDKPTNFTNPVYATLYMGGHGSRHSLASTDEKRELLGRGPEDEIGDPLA

Columns and labels:
[1] = biological target: GAL4 DNA binding domain fused to the intracellular domain of LRP1 (pBIND-LRP1) (UniProt Q07954); assay: two-hybrid; Checkmate mammalian two-hybrid (Promega) in H4 neuroglioma cells; GAL4 DNA binding domain fusions (pBIND) and VP16 fusions (pACT); firefly/Renilla luciferase ratio
[2] = biological target: GST fused to the cytoplasmic domain of LRP1 (GST-LICD) (UniProt Q07954); assay: pull-down; purified GST or GST-LRP1 cytoplasmic domain on glutathione beads incubated with 100 ug of lysate of transfected COS-7 cells; anti-V5 immunoblot; only the target purified
[3] = biological target: LRP1 intracellular domain with the NPTY motif of the C1 domain mutated to NATA (GAL4 DNA binding domain fusion) (UniProt Q07954); assay: two-hybrid; Checkmate mammalian two-hybrid (Promega) in H4 neuroglioma cells; GAL4 DNA binding domain fusions (pBIND) and VP16 fusions (pACT); firefly/Renilla luciferase ratio
[4] = biological target: LRP1 intracellular domain with the NPVY motif of the C2 domain mutated to NAVA (GAL4 DNA binding domain fusion) (UniProt Q07954); assay: as above

binding [1]: binds
B1: VP16 transactivation moiety fused to JIP1b (pACT-JIP1b) (protein, UniProt Q9WVI9-1 1-707)
chain: MAERESGLGGGAASPPAASPFLGLHIASPPNFRLTHDISLEEFEDEDLSEITDECGISLQCKDTLSLRPPRAGLLSAGSSGSAGSRLQAEMLQMDLIDAAGDTPGAEDDEEEEDDELAAQRPGVGPPKAESNQDPAPRSQGQGPGTGSGDTYRPKRPTTLNLFPQVPRSQDTLNNNSLGKKHSWQDRVSRSSSPLKTGEQTPPHEHICLSDELPPQGSPVPTQDRGTSTDSPCRRSAATQMAPPSGPPATAPGGRGHSHRDRIHYQADVRLEATEEIYLTPVQRPPDPAEPTSTFMPPTESRMSVSSDPDPAAYSVTAGRPHPSISEEDEGFDCLSSPERAEPPGGGWRGSLGEPPPPPRASLSSDTSALSYDSVKYTLVVDEHAQLELVSLRPCFGDYSDESDSATVYDNCASASSPYESAIGEEYEEAPQPRPPTCLSEDSTPDEPDVHFSKKFLNVFMSGRSRSSSAESFGLFSCVINGEEHEQTHRAIFRFVPRHEDELELEVDDPLLVELQAEDYWYEAYNMRTGARGVFPAYYAIEVTKEPEHMAALAKNSDWIDQFRVKFLGSVQVPYHKGNDVLCAAMQKIATTRRLTVHFNPPSSCVLEISVRGVKIGVKADDALEAKGNKCSHFFQLKNISFCGYHPKNNKYFGFITKHPADHRFACHVFVSEDSTKALAESVGRAFQQFYKQFVEYTCPTEDIYLE

binding [1]: binds
B2: VP16 transactivation moiety fused to EB-1 (pACT-EB-1) (protein, UniProt Q8BIZ1 1-1259)
chain: MGKDQELLEAARTGNVALVEKLLSGRKGGILGGGSGPLPLSNLLSIWRGPNVNCTDSSGYTALHHAALNGHKDIVLKLLQYEASTNVADNKGYFPIHLAAWKGDVEIVKILIHHGPSHSRVNEQNNENETALHCAAQYGHSEVVAVLLEELTDPTIRNSKLETPLDLAALYGRLRVVKMIISAHPNLMSCNTRKHTPLHLAARNGHKAVVQVLLEAGMDVSCQTEKGSALHEAALFGKVDVVRVLLETGIDANIKDSLGRTVLDILKEHPSQKSLQIATLLQDYLEGAGRSAAVLEEHAQEDTAQETHLSSPAESPQKTKSETVTGELSKLLDEIKLCQEKDYSFEDLCHTISDHYLDNLSKISEEELGKNGSQSVRTSSTINLSPGEVEDEEEDPNSCGPTGLWEALTPCNGCRNLGFPMLAQESYPKKRNFPMEMEPSASLDTFPSENENFLCELVDTAVTKKPCSLEIARAPSPRTDNASEVAITAPGTSHHRNSSTGPTPDCSPPSPDTALKNIVKVIRPQPKQRTSIVSSLDFQRMNHNQEYFEISTSTGCTSFTSSPAASPPTSSVETTEVKNEGAEHADDLSQQEDDEPPKEYDAGQFAGLLHGSSPACESPENPFHLYGKRNTCEDGPDEASLANSPLPFKQTPIENNPEPSVKKVKPKVVSRTIFHKRNHQLENHTIVGTRMSRSGSRNGDQWGVNPGGFVERACTLGRIRSLPKALIDMHLSKNVSKSDSDLIAYPSKDKARVNWSKSSTAERSSKDNSERTPSFTSEWEEIDKIMNSIDVGINSELEGMNGETTRPRCPVQTVGQWLESIGLPQYENHLMANGFDSVQFMGSNVMEDQDLLEIGILNSGHRQRILQAIQLLPKMRPIGHDGYHPTSVAEWLDSIELGDYTKAFLINGYTSMDLLKKIWELELINVLKISLIGHRKRILASLGDRLHDDPPQKPPRSITLREPSGNHTPPQLSPSLSQSTYTTGGSLDVPHIIMQGDARRRRNENYFDDIPRSKLERQMAQTGDWGEPSITLRPPNEATASTPVQYWQHHPEKLIFQSCDYKAFYLGSMLIKELRGTESTQDACAKMRANCRKSTEQMKKVPTIILSVSYKGVKFIDAANKNIIAEHEIRNISCAAQDPEDLSTFAYITKDLKSNHHYCHVFTAFDVNLAYEIILTLGQAFEVAYQLALQARKGGHSSTLPESFENKPSKPIPKPRVSIRKSVQIDPSEQKTLANLPWIVEPGQEAKRGINTKYETTIF

binding [2]: binds
B3: NYGGF4-V5 (expressed in COS-7 cells) (protein, UniProt Q7Z2X4 1-250)
chain: MFSLPLSLPLCEDTAFLPSKCCSSHKTIKQARTLIMIFLASGTHFQTMLKSKLNVLTLKKEPLPAVIFHEPEAIELCTTTPLMKTRTHSGCKVTYLGKVSTTGMQFLSGCTEKPVIELWKKHTLAREDVFPANALLEIRPFQVWLHHLDHKGEATVHMDTFQVARIAYCTADHNVSPNIFAWVYREINDDLSYQMDCHAVECESKLEAKKLAHAMMEAFRKTFHSMKSDGRIHSNSSSEEVSQELESDDG

binding [1]: binds | binding [3]: binds | binding [4]: no binding
B4: VP16 transactivation moiety fused to Nyggf4 (pACT-Nyggf4) (protein, UniProt Q3UBG2-1 1-217)
chain: MWQPATERLQHFQTMLKSKLNVLTLKKEPIPAVLFHEPEAIELCTTTPLMKARTHSGCKVTYLGKVSTTGMQFLSGCTEKPVIELWKKHTLAREDVFPANALLEIRPFQVWLHHLDHKGEATVHMDTFQVARIAYCTADHNVSPNIFAWVYREINDDLSYQMDCHAVQCESKLEAKKLAHAMMEAFKKTFHSMKSDGRIHRSSSSEEASQELESDDG
